Measured values as given in PMC12136788.
The other results are listed elsewhere or left out.

T1: UNK ZnF1-3 (human, UniProt Q9C0B0 31-174)
T1 sequence: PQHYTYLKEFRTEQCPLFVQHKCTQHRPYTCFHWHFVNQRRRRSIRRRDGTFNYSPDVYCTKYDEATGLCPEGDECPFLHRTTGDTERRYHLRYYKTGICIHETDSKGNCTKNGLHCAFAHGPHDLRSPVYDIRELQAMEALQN

B1: chr16:32614670:32614671:+_ENSMUSG00000022797_ENSMUST00000023486|mus_mus|FALSE|FALSE (ssRNA)
RNA: GGGAGUUCUACAGUCCGACGAUCUGCAGCCAGUUUCAUCUCCACAUGACUGUUAUCUCCAUCUACUUGCCGAGCAAGGCUAAACCGGGUGUAUGACAAUGGUUCCCCACCAAACAAGUUAGAGAAUGCUGAUCUGGCUUGAUCCAACAGAGGAUUGAGCAUCA
B2: chr2:223789231:223789232:+_ENSG00000123983_ENST00000392066|hu_mus|FALSE|FALSE (ssRNA)
RNA: GGGAGUUCUACAGUCCGACGAUCUUUUGAAAUCUGUUCCAUCUUAUAAUUAUAUGCCAAAAUAAACAAGUUUCGUUGAAAAGCACUCAUUUCAUUCACUUUAUUCAUGACAUUUUUGUAGAUCCGAUCCAUGAUUUCCGGAACCAACAGAGGAUUGAGCAUCA
B3: chr11:100577090:100577091:-_ENSMUSG00000019173_ENSMUST00000107364|mus_hu|FALSE|FALSE (ssRNA)
RNA: GGGAGUUCUACAGUCCGACGAUCCUGCACUGACCCCACUGUCCCCAUAUACAAGGGUUGGGGGGCAAGAGCAUGUGGCUACUCCCAGCAAGGGAAAAUGGGAGAGCAGUAGAAAGGGGAGGAAGUGGGAAGAGCAGAAGAUCACAACAGAGGAUUGAGCAUCA
B4: chr2:202488911:202488912:-_ENSG00000155755_ENST00000286196|hu_mus|hu_hu_hu_mus_False|28_68 (ssRNA)
RNA: GGGAGUUCUACAGUCCGACGAUCAUUGAAACAUUUUUCAUAAUCUCCAGUAGCAUUUCAGCAUUAUUAAUCAAAAACUCAAUUGUAAAUACAUGUAUCUUAUAAAAAUAAAAAUACAAACACGAGUGGGGAGCGCAGGCGCCACAACAGAGGAUUGAGCAUCA
B5: chrX:71549400:71549401:+_ENSMUSG00000019087_ENSMUST00000019231|mus_hu|mus_mus_mus_hu_False|8_28 (ssRNA)
RNA: GGGAGUUCUACAGUCCGACGAUCGCAGUAGGAAGAGGGAAGCUCUUCAGUCCAGUGCGCUGCAGGGUGGGAAAGCAACAACACGGACACCGUCCCACCCUCAACCCUCUCAGGUGUACAGGGUCACAUCUGGGUCAUCAAAGACAACAGAGGAUUGAGCAUCA
B6: chr2:198266515:198266516:-_ENSG00000115524_ENST00000335508|hu_hu|motif|central (ssRNA)
RNA: GGGAGUUCUACAGUCCGACGAUCUUUCAUUUCCUCAUCAGGAGACUGGAAUUCUCGAAUAAGGAUUAACAUCACUUCUCGGGUAUAGUAGUUGGCAUAUUCUGCAUCCAUAAGAGGAAUAAGAUACCCAAUAGCCUUCAAGAACAACAGAGGAUUGAGCAUCA
B7: chr10:121026873:121026874:-_ENSMUSG00000034667_ENSMUST00000039810|mus_mus|motif|central (ssRNA)
RNA: GGGAGUUCUACAGUCCGACGAUCUUCUCUUAUAGAAUACACAUCGGCAUUGAAAAAUUUAAAGAAAUGUAAUGGCGGUCGGUGAAAGAUUACGUUUUGAUUGUUACCCCACAGCUCAUGUGUCUGCAUACACAGAACCAAACACAACAGAGGAUUGAGCAUCA
B8: chr6:57703266:57703267:-_ENSMUSG00000037788_ENSMUST00000114297|mus_mus|motif|central (ssRNA)
RNA: GGGAGUUCUACAGUCCGACGAUCCUGAUUUUCUCAUUUACAAUGUCAGCCCCCUUCCUUGCAGCCCCACUCCCCACCAUACGGCAUAUAAAUAAUCUAGACAUCUUAGCUAUACUUCCUUGCUCUUAGUACACAAGGUCUCAACAACAGAGGAUUGAGCAUCA
B9: chr8:67243003:67243004:-_ENSMUSG00000031605_ENSMUST00000034017|mus_mus|motif|central (ssRNA)
RNA: GGGAGUUCUACAGUCCGACGAUCAUCACUGGAGAUUAAGCUGCACACCUGCUCGAUGCCGAGGUUAAGAAACUCUUCACGGAGUACGACAUCUGCAAAAUGUUGUUCUGCAUACGUGUUGGCCUUAUUCAGGAGGUCUGUGCACAACAGAGGAUUGAGCAUCA
B10: chrX:71549762:71549763:+_ENSMUSG00000019087_ENSMUST00000019231|mus_mus|mus_mus_mus_hu_False|88_98 (ssRNA)
RNA: GGGAGUUCUACAGUCCGACGAUCAAACCCGUGUACUCACUCUUAACACAUCACCCCCACCAGAAAACGAUAACGACAGCCAAGCAGGACAGACAGUUAAGUAGUACUUCCACACUCCCAAACUCAGGGAGCCCUAUAACCUUACAACAGAGGAUUGAGCAUCA
B11: chr7:56126341:56126342:+_ENSG00000146731_ENST00000540286|hu_mus|hu_hu_hu_mus_True|18_38 (ssRNA)
RNA: GGGAGUUCUACAGUCCGACGAUCCAUGUUUCUCCUCUUGGCUCUGCGCAGAGCUACGAUCCCUUCUUUCGCAAGGGCAUCUAAGGAAAAGGGGUCAAUUCCCUUUUGAUUAAUAACAACAAAUCCUUUAUCUGAGUCACCACACAACAGAGGAUUGAGCAUCA
B12: chr7:141445308:141445309:+_ENSG00000106028_ENST00000265304|hu_hu|hu_hu_hu_mus_False|38_48 (ssRNA)
RNA: GGGAGUUCUACAGUCCGACGAUCUAUGAUUGUUGUUGCUUGCCGCCUCACAUUGUUUUUAUCCAUGUACUCGCCAUAGUCCACUUUCCCUUCCAAAUAAAUUCGAGCCCCCUUUUUCACAUACUGAUAUGCCACAUCUCUGAGCAACAGAGGAUUGAGCAUCA
B13: 120012519_120012639_81_5pUTR_ENSMUSG00000061306_ENSMUST00000103018|mouse|control|control (ssRNA)
RNA: GGGAGUUCUACAGUCCGACGAUCAUGGUUCCAGGUUCCCGCCUCCGCCUCCCCAGAGUGAAGCGGGAACCCGGAAGCGCCGCAGGCAACGCUAGCAACACCUCAGCUCCGCUUCGCUGCCUCCGGCACCCAAACUUCCGCCUUCAACAGAGGAUUGAGCAUCA
B14: chr12:48362563:48362564:+_ENSG00000134291_ENST00000256686|hu_hu|hu_hu_hu_mus_False|38_88 (ssRNA)
RNA: GGGAGUUCUACAGUCCGACGAUCUCCGUCAAGCCCUUCGAUAGACCCAUAGACUCUAAACUGUAAUCACUUUGUAUGGGGAAGGAAAAGAAACGCCAACACACUUUCAAAAAGCGGGGGUGGGGUGAGGCGGGAGGGGGAGGUCAACAGAGGAUUGAGCAUCA

target: T1, UNK ZnF1-3; assay: nsRBNS (natural sequence RNA bind-n-seq); RBNS binding buffer (assumed for nsRBNS): 25 mM Tris pH 7.5, 150 mM KCl, 3 mM MgCl2, 0.01% Triton X-100, 500 ug/ml BSA, 20 U/ml SUPERase-In, 4 C; UNK is unkempt and MSI1 is Musashi-1; names of the RNAs are library labels; protein concentration not given here; high values mean tight binding

Binder | binding signal
B1 | 0.928 enrichment R
B2 | 0.469 enrichment R
B3 | 2.16 enrichment R
B4 | 1.58 enrichment R
B5 | 0.798 enrichment R
B6 | 1.14 enrichment R
B7 | 2.21 enrichment R
B8 | 1.21 enrichment R
B9 | 0.865 enrichment R
B10 | 1.65 enrichment R
B11 | 1.01 enrichment R
B12 | 0.733 enrichment R
B13 | 0.373 enrichment R
B14 | 2.25 enrichment R
